Measurements reported in the RNAGym collection of RNA variant scans (doi:10.7554/elife.90254).
The source gives no read counts; variants with many changes may rest on few reads.

B1: LINE1-mini (parent)
chain: GGCAGAGCUCAACACAGCGUGGCAAAGUGGCUGUGGCUAGACUGCC

Variants of: B1
Experiment: self-cleavage, relative activity (ratio to wild type); higher = more cleavage; in vitro, sequencing; the parent is a self-cleaving ribozyme

Variant | self-cleavage
GGCAGAGCUCAACACCGCGUUUCAAAGUGGCUGUGGCUCGACUGCC [A16C G21U G22U A39C] | 0.02
GGCAGAGCUCAACACGGCAUGGCAAAGUGGCAGUAACUAGACUGCC [A16G G19A U32A G35A G36A] | 0.02
GGCAGAGCUCAACACGGCGUGGCAAAGUGGCUCUGGAUAGACUGCG [A16G G33C C37A C46G] | 0.01
GGCAGAGCUCAACACGGCGUGGCAAAGUGGCUGUGCCUAAACUGCC [A16G G36C G40A] | 0.1
GGCAGAGCUCAACACGGCGUGGCAAUGUGGCUGAGGCUAGCCUGCC [A16G A26U U34A A41C] | 0.03
GGCAGAGCUCAACACGGUGUGGCAAAGUGGAUGUGGCUAGAUUGAC [A16G C18U C31A C42U C45A] | 0
GGCAGAGCUCAACACGGCGUGGCAAAGUGGCUGUGGCUAGACCGUC [A16G U43C C45U] | 0.02
GGCAGAGCUCAACACUGUGUGGCAAAGUGGCUGUGGCUCGACUGCC [A16U C18U A39C] | 0.06
GGCAGAGCUCAACACGGCGUGGCAAAGUGGCUGUGUAUAGACUUCC [A16G G36U C37A G44U] | 0.01
GGCAGAGCUCAACACGUCGUGGCAAAGUGGAUGUGGGUAGACUGCC [A16G G17U C31A C37G] | 0.02
GGCAGAGCUCAACACUGGUUAGCAAAGUGGCUGUGGAUAGACUGCC [A16U C18G G19U G21A C37A] | 0.06
GGCAGAGCUCAACACGGUGUUGUAAAGUGGCUGUGGCUAGACUGCC [A16G C18U G21U C23U] | 0.07
GGCAGAGCUCAACACGACGUGGCAAAGUGGCUAUGGCAAGACUGCC [A16G G17A G33A U38A] | 0
GGCAGAGCUCAACACCGCGUGGCAAAGUGCUUAUGUCUAGACUGCU [A16C G30C C31U G33A G36U C46U] | 0.01
GGCAGAGCUCAACACGGCGUGGCAAAGUGGCUGCGGCUAGAGUGCC [A16G U34C C42G] | 0.39
GGCAGAGCUCAACACGGGGUGGCUAAGUGGCUGUGGCUAGACUGCC [A16G C18G A24U] | 0.04
GGCAGAGCUCAACACUGCGUGGCAACGUGGCUCUAGCUAGACUGCC [A16U A26C G33C G35A] | 0.01
GGCAGAGCUCAACACUGCGUGGUAAUGUGGCAGUGGCUAGACUGCC [A16U C23U A26U U32A] | 0.44
GGCAGAGCUCAACACGGCGUGGCGAAGUGGCUGUGGCUAGACCGCC [A16G A24G U43C] | 0.02

Variant | self-cleavage
GGCAGAGCUCAACACUGCGUGGCAACGUCGCUGUGGCUAGACUGCC [A16U A26C G29C] | 1.76
GGCAGAGCUCAACACGGCGUGGCAAAGUGGCGGUGGCUUGACUGCC [A16G U32G A39U] | 0.05
GGCAGAGCUCAACACGGAGUGGCAAGGUGGCUGUGGCUAGACUGCC [A16G C18A A26G] | 0.11
GGCAGAGCUCAACACGGCGUGGCAGAGUGGCUGUGUCUAGACUGCC [A16G A25G G36U] | 0.03
GGCAGAGCUCAACACGGCGUGGCAAAGUGGCUCUGGCUAGACUCCC [A16G G33C G44C] | 0.03
GGCAGAGCUCAACACGGCGUGGCAAAGUGGCUGUCGUUAGACUGCC [A16G G35C C37U] | 0.04
GGCAGAGCUCAACACGGCCUGGCAAUGUGGCUGUGGCUAGACUGCC [A16G G19C A26U] | 0.2
GGCAGAGCUCAACACCGCGUGGCAAAGUGGCUGUAGCUAGAUUGCC [A16C G35A C42U] | 0.08
GGCAGAGCUCAACACUGUGUGGCAAAUAGGCUGUGGCUAGACUGCC [A16U C18U G27U U28A] | 0.09
GGCAGAGCUCAACACCGCGUGGCAAAGUGGCUGUGACUAGACAGCC [A16C G36A U43A] | 0
GGCAGAGCUCAACACUGCGUGGCAUAGUGGCUGUGACUAGACUGUC [A16U A25U G36A C45U] | 0.05
GGCAGAGCUCAACACGGCGUGGCAAAGUGGCGGUGGCCAGACUGCC [A16G U32G U38C] | 0.03
GGCAGAGCUCAACACUGCGUGGCCAAGUGGGUGUGGAUAGCCAGCC [A16U A24C C31G C37A A41C U43A] | 0.01
GGCAGAGCUCAACACGGCGUGGCAAUGUGGCUGUGGCUAGACUGAC [A16G A26U C45A] | 0.11
GGCAGAGCUCAACACUGGGUGGCAAAGUGGCUGUGGCUAUACUGCC [A16U C18G G40U] | 0.08
GGCAGAGCUCAACACGGCGUGGCAAAGUGGGUGUGGCUAGACUUCC [A16G C31G G44U] | 0.03
GGCAGAGCUCAACACCGCGUUGGAAAGUGGCUGUGGCUGGACUGCC [A16C G21U C23G A39G] | 0.04
GGCAGAGCUCAACACGGCGUGGCAAAGUAGCUGUGGCAAGACUGCC [A16G G29A U38A] | 0.47
GGCAGAGCUCAACACGGCGUGGCAAAGUAGCUGUGGCUAUACUGCC [A16G G29A G40U] | 0.01

Variant | self-cleavage
GGCAGAGCUCAACACGGCGUGGCAAAGUGGCUGUGGGUCGACUGCC [A16G C37G A39C] | 0
GGCAGAGCUCAACACGGCGUGGCAAAGUUGCUGUGGCUACACUGCC [A16G G29U G40C] | 0.07
GGCAGAGCUCAACACGGUGUGACAAAGUGGCUUUGGCUAGACUGCC [A16G C18U G22A G33U] | 0.03
GGCAGAGCUCAACACCGCGUUGCAAAGUGGCUUUGGGUAGACUGCC [A16C G21U G33U C37G] | 0.01
GGCAGAGCUCAACACGGCGUGGCAAAGUGGCUGUGGCAAGAGUGCC [A16G U38A C42G] | 0.04
GGCAGAGCUCAACACGCUGUGGCAAAUUGGCUGUGGCUAGACUGCC [A16G G17C C18U G27U] | 0.09
GGCAGAGCUCAACACUGCGUGGCACAGUGGCUGUGCCUAGUCUGCC [A16U A25C G36C A41U] | 0.03
GGCAGAGCUCAACACGGCGUCGCAAAGUGGCUGGGGCUAGACUGUG [A16G G21C U34G C45U C46G] | 0
GGCAGAGCUCAACACGGCGUGGCAAAGUGGCUAUGGCUAGACUUCC [A16G G33A G44U] | 0.03
GGCAGAGCUCAACACGGGGUGGCAAAGUGGCUGUGGAUUGACUGCC [A16G C18G C37A A39U] | 0.07
GGCAGAGCUCAACACGGCGUGGCAUAGUAGCUGUGGCUAGACUGCC [A16G A25U G29A] | 0.07
GGCAGAGCUCAACACGGCGUGGCAAAGUGGCUGUUGCUACACUGCC [A16G G35U G40C] | 0.04
GGCAGAGCUCAACACGGCGUGGCAAAGUCGCUGUGGCUAGAUUUCC [A16G G29C C42U G44U] | 0.03
GGCAGAGCUCAACACGGCGUGGCAAAGUGGCUGUGGCUAAACUGUC [A16G G40A C45U] | 0.01
GGCAGAGCUCAACACGGUGUGGCAAAGUGGCUGUGGGUAGACUGCC [A16G C18U C37G] | 1.24
GGCAGAGCUCAACACGGCGUGGCAAAGUGGCUGUAACUAGACUGCC [A16G G35A G36A] | 0.03
GGCAGAGCUCAACACUGCGUGGCGAAGUGGCUGUGGCUAGACGACC [A16U A24G U43G G44A] | 0.03
GGCAGAGCUCAACACGGCGUGGCAAAGUGGCUGUGGCAAGACUUCC [A16G U38A G44U] | 0.25
